# Publication PMC6919601, “Identification of Plasmodium dipeptidyl aminopeptidase allosteric inhibitors by high throughput screening” (PLoS ONE, 2019)
# Several values for one entry are separate records, joined by “and”; a condition that tells them apart may be missing. Identical values can stand only once. Hit rate of the full screen: of about 110,000 compounds, about 230 (0.21%) showed an effect of 50% or more. Some of the results follow.
# Target: DPAP1 (Plasmodium falciparum, UniProt Q8IIJ9)
# Sequence (Q8IIJ9 whole entry, looked up): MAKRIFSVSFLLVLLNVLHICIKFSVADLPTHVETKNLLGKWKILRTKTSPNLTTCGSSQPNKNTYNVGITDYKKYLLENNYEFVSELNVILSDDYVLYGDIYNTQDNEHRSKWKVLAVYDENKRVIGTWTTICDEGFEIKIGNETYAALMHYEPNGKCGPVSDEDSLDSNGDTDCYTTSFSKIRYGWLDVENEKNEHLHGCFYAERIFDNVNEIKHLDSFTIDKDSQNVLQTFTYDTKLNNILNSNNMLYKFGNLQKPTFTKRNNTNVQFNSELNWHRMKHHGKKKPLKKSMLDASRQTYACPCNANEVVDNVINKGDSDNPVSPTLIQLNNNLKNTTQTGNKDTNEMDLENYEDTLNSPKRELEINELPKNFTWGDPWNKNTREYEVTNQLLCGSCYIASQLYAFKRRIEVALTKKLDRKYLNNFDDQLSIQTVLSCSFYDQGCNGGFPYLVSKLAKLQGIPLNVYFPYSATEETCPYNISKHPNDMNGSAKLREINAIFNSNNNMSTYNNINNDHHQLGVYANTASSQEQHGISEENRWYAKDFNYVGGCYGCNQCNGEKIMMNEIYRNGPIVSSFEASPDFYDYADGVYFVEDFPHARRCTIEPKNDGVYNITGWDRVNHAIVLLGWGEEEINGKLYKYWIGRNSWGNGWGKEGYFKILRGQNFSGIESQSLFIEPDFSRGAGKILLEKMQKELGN
# Assay: primary screen, percent inhibition; read by cleavage of a fluorogenic dipeptide substrate; higher = more effect of the substance
# Parameters: species or system P. falciparum D10 trophozoite lysates; single well
# 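Further: 30 min substrate incubation versus DMSO and 10 µM JCP410 controls.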
row,Structure (SMILES),% Inhibition @ 10 uM
1,Cc1ccc(S(=O)(=O)Nc2ccc(N3CCOCC3)cc2)cc1,-3.55%
2,CC(=O)c1cccc(NC(=O)CN(Cc2ccc(Cl)cc2)S(=O)(=O)c2ccc(Cl)cc2)c1,1.89%
3,Cc1ccccc1C(=O)Nc1c(C(=O)NC(C)(C)C)oc2ccccc12,-1.98%
4,COc1ccc(-c2cc(C(F)F)n3ncc(C(=O)Nc4cc(OC)c(OC)cc4C(C)=O)c3n2)cc1,0.331%
5,CC1CCC2C(=O)N(c3ccccc3O)C(=O)C2C1 (centres unmarked),1.02%
6,CC(C)(C)c1ccc(/C=C/C(=O)NCCCn2ccnc2)cc1,0.565%
7,COc1ccc(C2CC(c3ccccc3)=Nc3ccccc3S2)cc1 (centres unmarked),-3.92%
8,CN(Cc1ccccc1)C(=O)Cn1ncn2cccc2c1=O,-9.31%
9,COc1cccc2c(O)c3c(nc12)OC(C)(C)C3,-0.736%
10,CO/C(=C\c1ccc(OC)cc1)C(=O)c1ccccc1,-2.88%
11,Cc1ccc(C2=NS(=O)(=O)N(C)C(C(=O)N3CCC(C)CC3)=C2)cc1,6.98%
12,CN1CCN(Cc2nnc(S)n2-c2ccc(Cl)cc2)CC1,-2.03%
13,CC1(C)CC(=O)c2c(O)cc(=O)n(-c3ccc(F)cc3)c2C1,-1.07%
14,Cc1c(SCCO)c(O)nc2cc3c(cc12)OCO3,-2.73%
15,N#Cc1ccccc1S(N)(=O)=O,0.776%
16,Cc1ccc(C)n1-c1nnc(N2CCC(C(=O)NCCc3ccc(Cl)cc3)CC2)s1,-4.04%
17,O=C(Nc1ccccn1)C(=O)NC1CCCCC1,-1.75%
18,Cc1ccc(C(C)C)c(OCC(=O)N(Cc2ccc(C)o2)C2CCS(=O)(=O)C2)c1 (centres unmarked),10.9%
19,COCCCNC(=O)c1sc2cc(Cl)ccc2c1Cl,8.97%
20,CCOc1ccc(N2C(=O)CC(NCCc3ccc(S(N)(=O)=O)cc3)C2=O)cc1 (centres unmarked),-2.22%
21,COc1cccc(CNC(=O)CNC(=S)N(Cc2ccccc2)Cc2ccccc2F)c1,2.79%
22,Cc1cc(CS)cs1,2.83%

row,Structure (SMILES),% Inhibition @ 10 uM
1,Cc1ccsc1/C=c1\sc2nc(-c3ccccc3)nn2c1=O,-5.2%
2,COc1ccc(OC)c(CCNC(=O)C2CCN(c3nnc(-n4cccc4)s3)CC2)c1,2.76%
3,Cc1ccc(CN2CCNC2=O)cc1,-1.59%
4,CCCCCCn1c(=O)c(C(=O)Nc2nc(C)cs2)c(O)c2ccccc21,2.85%
5,OC(CN1CCCC1)Cn1c2ccc(Cl)cc2c2cc(Cl)ccc21 (centres unmarked),-2.27%
6,Cc1c(Cl)cccc1NC(=O)c1cccs1,-0.192%
7,Cc1ccc(-n2nc(C)c3c2OC(N)=C(C#N)C3c2ccc(F)cc2)cc1 (centres unmarked),-0.941%
8,O=C(O)CC12CC3CC(C1)CC(n1ncc(NCc4ccco4)c(Cl)c1=O)(C3)C2,0.166%
9,CCCC1C(=O)CC(c2ccccc2)NC1c1ccccc1 (centres unmarked),-3.35%
10,COc1ccc(CN2COc3c(cc4c5c(c(=O)oc4c3C)CCC5)C2)cc1OC,4.13%
11,CS(=O)(=O)N(CC(=O)Nc1ccc(F)cc1)c1cc(Cl)cc(Cl)c1,-1.61%
12,CCc1ccc2nc(NC3=NCN(CCOC)CN3)nc(C)c2c1,-7.33%
13,CCN(CC)CCCNC(=O)c1ccccc1,1.83%
14,Cc1nnc2c(NCCC3=CCCCC3)nc3ccc(C(=O)c4ccccc4)cc3n12,-1.59%
15,Cc1ccc(C)c(Cn2c(C)c(CNC(C)c3ccccc3)c(C(=O)O)c2C)c1 (centres unmarked),-0.23%
16,Oc1ccccc1C1=NC(c2cccs2)NC(c2ccc(F)cc2)C1 (centres unmarked),1.68%
17,Cc1cc(C)c2c(n1)SCC(=O)N2CC(=O)NCCN1CCCCCC1,1.03%
18,Cc1nc(C)c2cc3c(n[n+]2c1C)-c1cccc2cccc-3c12,-3.03%
19,Clc1cccc(N2CCN(Cc3cccc(Br)c3)CC2)c1,-0.127%
20,CCOc1cc(C#N)c(NC(=O)c2cccc(C)c2)cc1OCC,-4.41% and -1.61%
21,COc1ccc(NC(=O)CC2(CC(=O)O)CCCC2)cc1,-0.425%
22,O=C1C(c2cn(Cc3ccccc3)c3ccccc23)CC(c2ccccc2)=NN1Cc1ccccc1 (centres unmarked),3.31%

row,Structure (SMILES),% Inhibition @ 10 uM
1,COC(=O)c1cc(O)nc(SCc2cccc(C)c2)n1,4.47%
2,CCOc1nc(-c2ccccc2)c2cc(Cl)ccc2n1,0.51%
3,O=C(Cn1ccnc1)c1ccc(Cl)cc1Cl,6.8%
4,O=C(O)C(CCCCN1C(=O)C2C3C=CC(C3)C2C1=O)N1C(=O)C2C3C=CC(C3)C2C1=O (centres unmarked),-2.8%
5,C=CCO/C(O)=C1\C(C)=Nc2nnnn2C1c1cc(OC)c(OC)cc1OC (centres unmarked),-7.08%
6,O=C(CC(c1ccccc1)c1cc(Cl)ccc1O)NCCCN1CCOCC1 (centres unmarked),2.46%
7,Cc1ccc(S(=O)(=O)N(C)CC(=O)NCc2ccc(F)cc2)cc1,1.92%
8,O=C(Nc1ccc(Br)c(Br)c1)c1nc[nH]n1,2.65%
9,Fc1cccc(F)c1CN1CCN(c2ccccn2)CC1,1.62%
10,CC(=O)Nc1ccc(S(=O)(=O)Nc2ccc(S(=O)(=O)N3CCCCCC3)cc2)cc1,2.67%
11,CCOCCCNC(=O)C(c1ccc(Cl)cc1)N1CCN(C(=O)c2ccco2)CC1 (centres unmarked),0.457%
12,O=P(O)(Cc1ccccc1)c1ccccc1,-0.0369%
13,COCc1cc(C)n(CC(=O)Nc2ccc(Cl)cc2Cl)c(=O)c1C#N,1.01%
14,COc1cc2c(cc1OC)C(C(=O)N1CCC(Cc3ccccc3)CC1)C(c1cccnc1)N(C)C2=O (centres unmarked),-0.503%
15,CC(C)c1nnc(NC(=O)c2cc(=O)c3cc(Cl)ccc3o2)s1,-1.47%
16,COc1cc(OC)cc(C(=O)Nc2ccc3c(c2)OCO3)c1,-12.2%
17,CC(C)CNS(=O)(=O)c1ccc(OCC(=O)Nc2cccc(F)c2)cc1,-3.65%
18,Cc1cc(Oc2nc3ccccn3c(=O)c2/C=C(\C#N)C(=O)NCCCOC(C)C)ccc1Cl,11%
19,Cc1ccc(SC(C)C(=O)N2CCCC2)cc1 (centres unmarked),-4.43%
20,CN1CCN(S(=O)(=O)c2ccc(Cl)c([N+](=O)[O-])c2)CC1,0.827%
21,Cc1cc(CN2CCCCC2)oc1C(=O)O,-0.711%
